The campaign covered roughly 91,000 compounds. About 290 (0.32%) were called active. This list was built around the results that the source calls inconclusive (neither active nor inactive); the mix of calls is not that of the screen. The call rests on the fitted dose curve; in most records, active means well fitted inhibition curve with a large enough effect; inconclusive means small, poorly fitted or top-dose-only effect; inactive means no such curve, though single readings can be large or run the other way. A potency beside an inconclusive call is a rough fit, not a confirmed value.
These compounds were tested against Single-stranded DNA cytosine deaminase (Homo sapiens) (UniProt Q9GZX7) (assay: Primary qHTS assay for inhibitors of Activation Induced Cytidine Deaminase (AID): AID signal). Details: AID deamination FRET fluorescence, UDG-coupled, 4 h; series mostly up to 115 µM.
Further: nearly all actives have a fitted effect of over 25% in size.
Potency means the concentration at half of the fitted maximal effect; tags describe the fitted curve by direction and shape.

Chain of UniProt Q9GZX7 (Q9GZX7 whole entry, looked up): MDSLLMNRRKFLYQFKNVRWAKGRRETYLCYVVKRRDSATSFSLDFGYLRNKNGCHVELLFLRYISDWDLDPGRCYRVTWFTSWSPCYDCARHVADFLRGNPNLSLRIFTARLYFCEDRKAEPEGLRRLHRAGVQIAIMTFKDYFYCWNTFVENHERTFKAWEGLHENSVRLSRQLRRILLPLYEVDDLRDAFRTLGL

| SMILES | Potency |
| --- | --- |
| CCN(C(=O)c1nn(-c2ccc(OC)c(Cl)c2)c(=O)c2c1c1ccccc1n2C)c1cccc(C(F)(F)F)c1 | inconclusive: 20 µM [inhibitor, full curve, poor fit] |
| CCOc1ccccc1C(=O)Nc1ccc2nc(N(CC)CC)cc(C)c2c1 | inactive |
| COc1ccc(-n2c(=O)c3c4c(sc3n(Cc3ccc(F)cc3)c2=O)CCCC4)c(OC)c1 | inconclusive: 31.6 µM [inhibitor, partial curve, poor fit] |
| COc1cccc(CNC(=O)c2cc3c(s2)-c2ccccc2OC3)c1 | inconclusive: 56.2 µM [inhibitor, partial curve, poor fit] |
| COc1ccc(N(C)C(=O)c2cn(C3CCCCC3)c(=O)c3c2c2ccccc2n3C)cc1 | active: 39.8 µM |
| OCCNC(=S)Nc1ccc(Br)cc1 | inactive |
| Cc1ccc(-c2nc3sc(CCNC(=O)c4ccc(Br)o4)c(C)n3n2)cc1 | inconclusive: 56.2 µM [inhibitor, partial curve, poor fit] |
| Cc1cccc(OCC(=O)N(Cc2cccs2)c2ccc(Cl)cc2)c1C | inconclusive: 31.6 µM [inhibitor, partial curve, poor fit] |
| CCCCN(CCCC)C(=O)c1cc2c(=O)n3cccc(C)c3nc2s1 | inconclusive: 44.7 µM [inhibitor, partial curve, poor fit] |
| O=C(NCc1ccccn1)c1ccc2c(c1)N(Cc1ccccc1)C(=O)c1ccccc1S2=O (configuration not stated) | inactive |
| CC(C)(C)OC(=O)N1CCC(c2c(C(=O)N3CCC(c4ccccc4)C3)cnn2-c2cccc(Cl)c2)CC1 (configuration not stated) | active: 39.8 µM |
| O=C(NCC1CCN(Cc2cccc(Cl)c2)CC1)Nc1cc(Cl)ccc1Cl | inconclusive: 28.2 µM [inhibitor, partial curve, poor fit] |
| CCN1C(=O)c2ccccc2Sc2ccc(C(=O)NCCCN(CC(C)C)CC(C)C)cc21 | inconclusive: 12.6 µM [inhibitor, partial curve, poor fit] |
| CCOC(=O)c1cccc(NC(=O)[C@@H](c2ccccc2)N2Cc3ccccc3C2=O)c1 | inconclusive: 7.94 µM [inhibitor, full curve, poor fit] |
| Cc1cccc(CCNC(=O)c2sc3nc4n(c(=O)c3c2C)CCCC4)c1 | inconclusive: 39.8 µM [inhibitor, full curve, poor fit] |
| CC(C)(C)c1ccc(C(=O)N2CCN(C/C=C/c3ccccc3)CC2)cc1 | inactive |
| COc1ccc(C2CC(=O)Nc3c2c(C)nn3-c2nncc(-c3ccc(C)cc3)n2)c(OC)c1OC (configuration not stated) | inconclusive: 31.6 µM [inhibitor, partial curve] |
| N#Cc1c(O)ccc(O)c1C#N | inactive |
| Fc1ccccc1CSc1ccc(-c2cccs2)nn1 | inconclusive: 31.6 µM [inhibitor, partial curve, poor fit] |
| CNc1snc(C)c1C(=O)N(C)CCOc1ccccc1C | inactive |
| Cc1ccc2onc(CNC(=O)N3CCN(c4cccc(C)c4C)CC3)c2c1 | inconclusive: 15.8 µM [inhibitor, full curve, poor fit] |
| COc1ccc(C(=O)Nc2cc(-c3nc4ccccc4o3)ccc2OC)cc1Cl | inactive |
| COc1cc(NC(=O)c2ccc(C)cc2)ccc1NC(=O)c1cc2ccccc2o1 | inactive |

| SMILES | Potency |
| --- | --- |
| COc1cc(CNC(=O)c2ccc3c(c2)NC(=O)CCS3)ccc1OCc1ccccc1 | inactive |
| COc1ccc2nc(/C(C#N)=C\c3ccco3)[nH]c2c1 | inactive |
| COc1ccc(NC(=O)c2noc3c2CCCC3)cc1Cl | inactive |
| Cc1nc2c(C(=O)NCc3ccccc3)c[nH]n2c(=O)c1Cc1ccccc1Cl | active: 89.1 µM |
| Cc1sc2ncn(CC(=O)N(C)c3ccc(Br)cc3)c(=O)c2c1S(=O)(=O)N1CCC(C)CC1 | inconclusive: 70.8 µM [inhibitor, partial curve, poor fit] |
| CCCCN(CCCNC(=O)c1cc(Nc2ccc(OC)c(OC)c2)nc2ccccc12)Cc1ccccc1 | inconclusive: 44.7 µM [inhibitor, single point] |
| Cc1ccc(-n2ncc3c(NC4CCCCCC4)ncnc32)cc1Cl | inconclusive: 79.4 µM [inhibitor, single point] |
| Cc1ccc(-n2ncc(C(=O)NCc3ccco3)c2C2CCN(C(=O)OC(C)(C)C)CC2)c(C)c1 | inconclusive: 11.2 µM [inhibitor, partial curve, poor fit] |
| CCc1ccc(CN(Cc2cn[nH]c2-c2ccc(OC)cc2)C(=O)Nc2cc(Cl)ccc2OC)cc1 | inconclusive: 39.8 µM [inhibitor, full curve, poor fit] |
| COC(=O)c1c(NC(=O)CCCOc2cccc(C)c2)sc2c1C(C(=O)OC)CC2 (configuration not stated) | inconclusive: 39.8 µM [inhibitor, partial curve, poor fit] |
| CCC(Sc1nc2ccccc2c(=O)n1CCc1ccc(OC)c(OC)c1)C(=O)N(CC)CC (configuration not stated) | inconclusive: 2.82 µM [inhibitor, partial curve, poor fit] |
| Clc1ccc(-c2noc3ncnc(NCCc4ccccc4)c23)cc1 | active: 25.1 µM |
| O=C(O)CCCN1CCCC1 | inactive |
| Cc1ccc(Cl)cc1N1CCN(C(=O)c2ccc(CS(=O)(=O)c3ccccc3C)o2)CC1 | inconclusive: 25.1 µM [inhibitor, partial curve] |
| CN(Cc1ccccc1)C(=O)c1ccc2c(c1)N(Cc1ccccc1Cl)C(=O)c1ccccc1S2 | inconclusive: 22.4 µM [inhibitor, full curve, poor fit] |
| CCN1C(=O)c2ccccc2S(=O)c2ccc(C(=O)N3CCN(c4cc(Cl)ccc4C)CC3)cc21 (configuration not stated) | inconclusive: 15.8 µM [inhibitor, full curve, poor fit] |
| CCOc1ccccc1OCCCn1c(-c2ccc(Cl)cc2)nc2ccccc2c1=O | inactive |
| Cc1ccc(Cl)cc1N1CCN(C(=O)c2ccc3c(c2)N(Cc2ccc(F)cc2)CCS3)CC1 | inconclusive: 15.8 µM [inhibitor, full curve, poor fit] |
| COc1c(C)cccc1C(=O)Nc1cccc2ccc(C)nc12 | inconclusive: 50.1 µM [inhibitor, partial curve, poor fit] |
| O=C(CSCc1ccccc1Cl)N1CCN(c2ccc(Cl)cc2)CC1 | inconclusive: 15.8 µM [inhibitor, full curve, poor fit] |
| O=C(CSC1CCCCC1)c1ccccc1Br | inactive |
| Cc1ccc(NC(=O)c2sc3nc4c(cc3c2N)CN(Cc2ccccc2)CC4)cc1 | inactive |
| CCN(CC)CCCNC(=O)c1nn(C)c2c1CS(=O)(=O)c1ccccc1-2 | inconclusive: 112 µM [inhibitor, partial curve, poor fit] |

| SMILES | Potency |
| --- | --- |
| CCOc1ccc(CN2CCc3nc(Nc4ccc(OC)cc4OC)ncc3C2)cc1 | inconclusive: 79.4 µM [inhibitor, partial curve, poor fit] |
| O=C(Cn1nnc(-c2ccccc2Cl)n1)Nc1ccc(Br)cc1 | inactive |
| Cc1cccn2c(=O)c3cc(C(=O)NC(C)c4ccccc4)c(=N)n(CCCO)c3nc12 (configuration not stated) | inconclusive: 79.4 µM [inhibitor, single point] |
| CCn1cc(C(=O)OCC(=O)Nc2cccc(C(C)=O)c2)c(=O)c2ccc(C)nc21 | active: 44.7 µM |
| Cc1oc2cc(OC(=O)c3ccco3)ccc2c(=O)c1-c1ccc(Br)cc1 | inactive |
| N#Cc1cccc(C(=O)Nc2ccc(Cl)c(C(F)(F)F)c2)c1 | inactive |
| Cc1ccc(Cl)cc1N1CCN(Cc2nnc(-c3ccc4c(c3)OCO4)o2)CC1 | inconclusive: 56.2 µM [inhibitor, partial curve, poor fit] |
| Cc1ccc(C)c(Cn2c(C3CC(=O)N(c4ccccc4C)C3)nc3ccccc32)c1 (configuration not stated) | inconclusive: 56.2 µM [inhibitor, partial curve, poor fit] |
| CC(C)c1ccc(OC(=O)c2cc(-c3ccccc3)on2)cc1 | inconclusive: 79.4 µM [inhibitor, single point] |
| Cc1ccc(-c2nc(C)c(CCNS(=O)(=O)c3ccc(F)c(C(F)(F)F)c3)s2)cc1 | inactive |
| COc1ccc(CNc2oc(-c3ccc(COc4ccccc4C)o3)nc2C#N)cc1 | inconclusive: 112 µM [inhibitor, partial curve, poor fit] |
| CCN(Cc1ccccc1)C(=O)Cn1c(=O)n(-c2ccc(C)c(C)c2)c(=O)c2c(C)c(C)sc21 | inconclusive: 25.1 µM [inhibitor, full curve, poor fit] |
| O=c1cc(-c2ccccc2)n2c(SCc3ccc(F)cc3)nnc2[nH]1 | inconclusive: 3.98 µM [inhibitor, full curve, poor fit] |
| c1ccc2c(NC3CCCC3)ncnc2c1 | inactive |
| Cc1nnc(N2CCCC(C(=O)NCCc3ccc(Cl)cc3)C2)c2nn(-c3ccccc3)c(C)c12 (configuration not stated) | inconclusive: 39.8 µM [inhibitor, partial curve, poor fit] |
| O=C(Nc1ccc(-c2cn3cccnc3n2)cc1)c1cc(Br)ccc1Cl | inactive |
| CC1CCN(C(CNC(=O)Cn2c(=O)c3c(ncn3C)n(C)c2=O)c2cccs2)CC1 (configuration not stated) | inactive |
| CC1Sc2ccc(C(=O)Nc3nc(-c4cccnc4)cs3)cc2NC1=O (configuration not stated) | inactive |
| CC1(C)CCC2=C(O1)c1ccccc1C(=O)C2=O | active: 7.94 µM |
| Cc1cccc(N2CCN(C(=O)CCn3c(=O)c4cccn4c4cccnc43)CC2C)c1 (configuration not stated) | inconclusive: 89.1 µM [inhibitor, single point] |
| O=C(/C=C/c1ccc(-c2ccccc2Cl)o1)c1ccc(F)cc1 | inactive |

Source: PubChem BioAssay AID1347428 (National Center for Advancing Translational Sciences (NCATS), 2020)
